# According to PubChem BioAssay AID463173 (ICCB-Longwood Screening Facility, Harvard Medical School, 2010):
# Among all 52,000 compounds or so, about 4,300 (8.3%) were called active. Rule as the data show it: active = survival mostly below about 52% (no sharp cut-off); inactive = mostly above about 56%. The list shows a part of the results.
# Test system: DeltatarO mutant
# Assay: S. aureus survival, RN4220 and DeltatarO strains – OD600, teichoic acid synthesis inhibitors, primary screen (AID 463173)
# Details: S. aureus RN4220 wild type/DeltatarO growth, OD600, 18 h, stronger effect = lower value, screened at 18.75 µg/mL (by protocol)
row,SMILES,survival
1,N#Cc1cc(C#N)c(SCC(N)=O)nc1N,inactive: 72%
2,Cc1cccc(C)c1NC(=O)c1sc(-n2nc(C)c(Cc3ccccc3)c2C)nc1C,inactive: 76%
3,O=C(CSc1ncc(S(=O)(=O)c2ccc(Cl)cc2)c(=O)[nH]1)Nc1cccc(C(F)(F)F)c1,inactive: 69%
4,COc1ccc(-c2cc3nc(C)c(CCC(=O)NC4CCCCC4)c(C)n3n2)c(OC)c1,inactive: 76%
5,COc1ccc(Cn2c(=O)c3cccnc3n(Cc3cccc(F)c3)c2=O)cc1,inactive: 84%
6,COc1ccccc1CNC(=O)c1ccc2nc(CCc3ccccc3)oc2c1,inactive: 83%
7,COc1ccc(-c2nc(SCC(=O)Nc3c(C)cc(C)cc3C)n[nH]2)cc1,inactive: 94%
8,COC(=O)c1ccc(C(=O)OC)c(NC(=O)c2ccc(-c3ccccc3)s2)c1,inactive: 126%
9,COC(=O)C(CCSC)NC(=O)Cn1ncc2c([nH]c3ccccc32)c1=O (stereo not drawn),inactive: 60%
10,CCCOc1ccc(CNC(=O)c2ccc3c(c2)N(Cc2ccccc2)CCS3)cc1,inactive: 103%
11,COc1cccc2c1cc1c(=O)n(CC(=O)N3CCN(c4cccc(Cl)c4)CC3)nc(C)n12,inactive: 105%
12,O=C(Nc1ccc2nc(SCCOc3ccccc3)sc2c1)c1ccccc1F,inactive: 93%
13,Cc1ccc(CSC2=Nc3ccccc3C3=NC(CC(=O)NCc4cccs4)C(=O)N23)c(C)c1 (stereo not drawn),inactive: 77%
14,COc1ccc(-c2cn3c(n2)sc2cc(C(=O)Nc4cccc(SC)c4)ccc23)cc1,inactive: 59%
15,Nc1n[nH]c(N)c1N=Nc1ccc(Cl)cc1,inactive: 64%
16,CCc1ccc(N(CC)C(=O)CCn2cnc3onc(-c4ccc(F)cc4)c3c2=O)cc1,inactive: 77%
17,CCOC(=O)c1c(C)c(-c2ccccc2)n(CC(=O)Nc2ccc(OCC)cc2)c1C,inactive: 73%
18,Cc1ccc(Cl)cc1N1CCN(C(=O)C2CCN(S(=O)(=O)Cc3ccccc3)CC2)CC1,inactive: 72%
19,COc1ccccc1-c1noc(-c2ccc(N3CCN(C)CC3)c([N+](=O)[O-])c2)n1,inactive: 113%
20,O=C(c1ccc(Cl)cc1)N1CCC(c2nc3ccccc3o2)CC1,inactive: 79%
21,CCOc1ccc(NC(=O)c2c(NCc3ccc(C)o3)sc3c2CCCCC3)cc1,inactive: 80%
22,COCCn1c(SC)nnc1-c1ccccc1,inactive: 75%

row,SMILES,survival
1,CCn1cc(C(=O)OCC(=O)Nc2cc(OC)cc(OC)c2)c(=O)c2ccc(C)nc21,inactive: 59%
2,Cc1ccc(CNC(=O)CN2C(=O)CSc3ccc(S(=O)(=O)N(C)C)cc32)cc1,inactive: 99%
3,Nc1ncnc2c1ncn2CC(O)CO (stereo not drawn),inactive: 81%
4,O=C(OCc1cc(=O)n2nc(-c3cccs3)sc2n1)c1ccccc1,inactive: 65%
5,CC(=O)n1nc(-c2cccnc2)nc1NCc1ccc(F)cc1,inactive: 83%
6,CNC(=O)c1ccccc1Nc1ccc(SC(F)F)cc1,inactive: 89%
7,COC(=O)c1ccccc1NC(=O)c1ccc(-c2nc(COc3ccccc3)c(C)o2)cc1,inactive: 102%
8,CCCCc1nn2c(=O)cc(COC(=O)c3cccc(Cl)c3)nc2s1,inactive: 67%
9,O=C(c1ccccc1)c1cn(Cc2ccc(F)cc2)c2ccccc2c1=O,inactive: 74%
10,Cc1cccc(C)c1NC(=O)Cn1nnc(C(=O)Nc2c(C)cccc2C)c1N,inactive: 91%
11,O=C(CCC1N=C2c3ccccc3N=C(SCc3cccc(F)c3)N2C1=O)NCCc1ccccc1 (stereo not drawn),inactive: 83%
12,Cc1cc(OCC(=O)Nc2c(C(=O)c3ccccc3)oc3ccccc23)cc(C)c1Cl,inactive: 95%
13,CC(C)CN(CCCNC(=O)c1cc(-c2cccs2)nc2ccccc12)CC(C)C,inactive: 46%
14,Cc1nn(C)c2c1c(-c1ccccc1)cc(=O)n2Cc1ccccc1C#N,inactive: 134%
15,CCOC(=O)C1CCCN(c2c(C(=O)c3ccc(OCC)cc3)cnc3ccccc23)C1 (stereo not drawn),active: -3%
16,CCN1CCN(CCCNC(=O)c2cnn(-c3ccccc3Cl)c2C2CCN(C(=O)OC(C)(C)C)CC2)CC1,inactive: 118%
17,COc1ccc(-n2ncc(C(=O)Nc3ccc4c(c3)OCO4)c2C2CCN(C(=O)OC(C)(C)C)CC2)cc1,inactive: 85%
18,Cc1ccc(NC(=O)Cn2cc(S(=O)(=O)Cc3cccc(Cl)c3)c3ccccc32)cc1C,inactive: 74%
19,COc1ccc(C2=C(C)C(=NCCCN3CCN(c4cc(Cl)ccc4C)CC3)NS2(=O)=O)cc1,inactive: 59%
20,O=C(NCc1ccccc1Br)c1ccc2c(c1)nc1n2CCOC1,active: -1%
21,Cn1c(-c2ccccc2)cnc1NCc1ccccc1O,active: 46%
22,N#Cc1nc2c(-c3nc4ccccc4s3)c(N)n(Cc3ccccc3)c2nc1C#N,inactive: 91%

row,SMILES,survival
1,O=C(CCC1N=C2c3ccccc3N=C(SCc3ccccc3F)N2C1=O)NCc1ccccc1 (stereo not drawn),inactive: 69%
2,Cc1ccc(CNC(=O)CN2C(=O)CSc3c2c(C)nn3-c2ccccc2)cc1,inactive: 89%
3,COc1ccc(C)cc1NC(=O)CCNC(=O)Cn1ccc2ccccc2c1=O,inactive: 63%
4,COc1ccc(NC(=O)c2oc3ccccc3c2NC(=O)Cc2coc3cc(C)ccc23)cc1,inactive: 70%
5,CCOC(=O)c1c(C)[nH]c(CCC(=O)NCc2cccc(C)c2)c1C,inactive: 70%
6,COCCCn1c(=N)c(C(=O)NCc2cccnc2)cc2c(=O)n3cccc(C)c3nc21,inactive: 62%
7,CN1C(=O)Cc2cc(S(=O)(=O)CCC(=O)Nc3ccc(Cl)c(C(F)(F)F)c3)ccc21,inactive: 91%
8,Cc1ccccc1NS(=O)(=O)c1ccc2[nH]cc(C(=O)NC3CCCCC3)c(=O)c2c1,inactive: 85%
9,COc1cccc(-c2noc(COc3ccc(C(C)(C)C)cc3)n2)c1,inactive: 88%
10,Cc1ccc(NC(=O)c2oc3ccc(S(=O)(=O)N4CCCCCC4)cc3c2C)c(C)c1,inactive: 124%
11,CC1(C)c2ssc(=S)c2-c2ccccc2N1C(=O)CSC#N,inactive: 106%
12,CCn1c(=O)c2cc(C(=O)NC3CCC(C)CC3)sc2c2ccccc21 (stereo not drawn),inactive: 75%
13,CC(C)/C=N/NC(=O)c1ccc2c(c1)NC(=O)C(C)(C)O2,inactive: 85%
14,COC(=O)C(NC(=O)c1ccccc1)=C1C=C(C)OC(C)=C1,inactive: 98%
15,CN(C(=O)c1cc2c(Cl)nc3ccccc3c2s1)c1cccc(C(F)(F)F)c1,inactive: 72%
16,COc1cccc(NC(=O)N(Cc2c[nH]c3ccccc23)C2CCCCCC2)c1,inactive: 46%
17,CCn1c(C(=O)Nc2c(C)cccc2C)cc2sc(Cl)cc21,active: 60%
18,O=C(Cn1nc(-c2ccccc2)c2c(c1=O)CCCC2)Nc1ccc(F)c(Cl)c1,active: 23%
19,CCOC(=O)c1c(C)oc2nc(C)nc(N3CCN(c4cc(Cl)ccc4C)CC3)c12,inactive: 96%
20,CCOC(=O)c1cc(OC(=O)c2cc(OC)c(OC)c(OC)c2)n(-c2ccccc2)n1,active: 54%
21,CCc1ccccc1N(C)C(=O)Cn1cnc2sc(C)c(S(=O)(=O)N3CCC(C)CC3)c2c1=O,inactive: 71%
22,CCOc1ccc(-n2c(SCC(=O)Nc3cc(C)on3)nc3c([nH]c4ccccc43)c2=O)cc1,inactive: 69%

row,SMILES,survival
1,COc1cccc(CNC(=O)CCCn2nc(C)c3sc4ccccc4c3c2=O)c1,inactive: 84%
2,COc1ccc(NC(=O)c2cc3c(=O)n(Cc4cccs4)ccc3nc2C)cc1,inactive: 75%
3,O=C(c1cc(-c2cccc(Cl)c2)on1)N1CCCCC1,active: 46%
4,Cc1ccc(NC(=O)c2c(NC(=O)c3ccc(F)cc3)sc3c2CCCC3)cc1C,inactive: 67%
5,COc1ccc(OC)c(NC(=O)Cn2c(=O)n(-c3cccc(C)c3)c(=O)c3c2c2cc(C)ccc2n3C)c1,inactive: 64%
6,O=C(CCC1CCCC1)N1CCc2c([nH]c3ccccc23)C1c1ccc(F)cc1 (stereo not drawn),inactive: 99%
7,CC(=O)c1ccc(NC(=O)c2cn(-c3ccccc3)nc2-c2ccc(Br)cc2)cc1,inactive: 75%
8,COc1cccc(CN(Cc2nnnn2C2CCCCC2)CC2CCCO2)c1 (stereo not drawn),inactive: 82%
9,CCc1cccc(C)c1NC(=O)C1CCN(S(=O)(=O)c2c(C)noc2/C=C/c2c(C)cc(C)cc2C)CC1,inactive: 81%
10,COc1ccc(C)cc1NC(=O)Cn1c(=O)oc2cc(S(=O)(=O)N3CCCCC3)ccc21,inactive: 86%
11,Cc1ccc(Nc2ccc3cc(S(=O)(=O)N4CCCCC4)ccc3n2)cc1F,inactive: 79%
12,CCn1cc2nc(SCC(=O)Nc3ccc(OC)c(Cl)c3)n(Cc3ccc(OC)cc3)c(=O)c2n1,inactive: 143%
13,CCOC(=O)c1ccc(NC(=O)CSc2nc(-c3ccc(OC)cc3)cc(C(F)(F)F)c2C#N)cc1,inactive: 125%
14,O=C(Cc1ccccc1)N(Cc1cccnc1)c1nc2c(Cl)cccc2s1,inactive: 84%
15,COc1ccc(N(CC(=O)N2CCN(c3ccccc3)CC2)S(=O)(=O)c2c(C)nn(C)c2C)cc1,inactive: 69%
16,COc1ccc(-c2cc3nc(C)c(CCC(=O)NCc4ccccc4Cl)c(C)n3n2)c(OC)c1,inactive: 97%
17,COc1ccccc1Nc1nc(-c2ccc(F)cc2)c2c(n1)-c1ccccc1OC2,inactive: 58%
18,Cc1ccc(CCNC(=O)CN(c2cc(C)cc(C)c2)S(=O)(=O)c2c(C)noc2C)cc1,inactive: 133%
19,COc1ccccc1CNC(=O)CCCn1c(=O)c2ccccc2n(Cc2ccc(F)cc2)c1=O,inactive: 123%
20,COc1ccccc1NC(=O)c1c(C)cc(C)nc1SCC(=O)Nc1ccc(C)c(C)c1,inactive: 49%
21,COc1cccc(-n2ccn(CC(=O)NCc3ccc(C)cc3)c(=O)c2=O)c1,inactive: 90%
22,Cc1ccc(NC(=O)Nc2cccc(C)n2)cc1,inactive: 69%
